Experimental data taken from PubChem BioAssay AID1347165 (National Center for Advancing Translational Sciences (NCATS), 2019).
Screen size: about 220,000 compounds; about 5,700 (2.6%) were called active. The inconclusive results got no clear call from the source; some entries with a clear call stand among them for comparison. Calls follow the shape of the dose curve; as a rule, active = well fitted inhibition curve with a large enough effect; inconclusive = small, poorly fitted or top-dose-only effect; inactive = no such curve, though single readings can be large or run the other way. Potencies of inconclusive entries are doubtful fits and often do not repeat.

These compounds were tested against Lysine-specific demethylase 5B (Homo sapiens) (UniProt Q9UGL1) (assay: Primary screen for KDM5B Histone Demethylases FDH-coupled qHTS). Conditions: FDH-coupled NADH fluorescence (FDH is formaldehyde dehydrogenase); activity change, negative = inhibition: at 57.7 µM (top of the series) unless noted.
UniProt Q9UGL1, sequence (Q9UGL1 whole entry, looked up): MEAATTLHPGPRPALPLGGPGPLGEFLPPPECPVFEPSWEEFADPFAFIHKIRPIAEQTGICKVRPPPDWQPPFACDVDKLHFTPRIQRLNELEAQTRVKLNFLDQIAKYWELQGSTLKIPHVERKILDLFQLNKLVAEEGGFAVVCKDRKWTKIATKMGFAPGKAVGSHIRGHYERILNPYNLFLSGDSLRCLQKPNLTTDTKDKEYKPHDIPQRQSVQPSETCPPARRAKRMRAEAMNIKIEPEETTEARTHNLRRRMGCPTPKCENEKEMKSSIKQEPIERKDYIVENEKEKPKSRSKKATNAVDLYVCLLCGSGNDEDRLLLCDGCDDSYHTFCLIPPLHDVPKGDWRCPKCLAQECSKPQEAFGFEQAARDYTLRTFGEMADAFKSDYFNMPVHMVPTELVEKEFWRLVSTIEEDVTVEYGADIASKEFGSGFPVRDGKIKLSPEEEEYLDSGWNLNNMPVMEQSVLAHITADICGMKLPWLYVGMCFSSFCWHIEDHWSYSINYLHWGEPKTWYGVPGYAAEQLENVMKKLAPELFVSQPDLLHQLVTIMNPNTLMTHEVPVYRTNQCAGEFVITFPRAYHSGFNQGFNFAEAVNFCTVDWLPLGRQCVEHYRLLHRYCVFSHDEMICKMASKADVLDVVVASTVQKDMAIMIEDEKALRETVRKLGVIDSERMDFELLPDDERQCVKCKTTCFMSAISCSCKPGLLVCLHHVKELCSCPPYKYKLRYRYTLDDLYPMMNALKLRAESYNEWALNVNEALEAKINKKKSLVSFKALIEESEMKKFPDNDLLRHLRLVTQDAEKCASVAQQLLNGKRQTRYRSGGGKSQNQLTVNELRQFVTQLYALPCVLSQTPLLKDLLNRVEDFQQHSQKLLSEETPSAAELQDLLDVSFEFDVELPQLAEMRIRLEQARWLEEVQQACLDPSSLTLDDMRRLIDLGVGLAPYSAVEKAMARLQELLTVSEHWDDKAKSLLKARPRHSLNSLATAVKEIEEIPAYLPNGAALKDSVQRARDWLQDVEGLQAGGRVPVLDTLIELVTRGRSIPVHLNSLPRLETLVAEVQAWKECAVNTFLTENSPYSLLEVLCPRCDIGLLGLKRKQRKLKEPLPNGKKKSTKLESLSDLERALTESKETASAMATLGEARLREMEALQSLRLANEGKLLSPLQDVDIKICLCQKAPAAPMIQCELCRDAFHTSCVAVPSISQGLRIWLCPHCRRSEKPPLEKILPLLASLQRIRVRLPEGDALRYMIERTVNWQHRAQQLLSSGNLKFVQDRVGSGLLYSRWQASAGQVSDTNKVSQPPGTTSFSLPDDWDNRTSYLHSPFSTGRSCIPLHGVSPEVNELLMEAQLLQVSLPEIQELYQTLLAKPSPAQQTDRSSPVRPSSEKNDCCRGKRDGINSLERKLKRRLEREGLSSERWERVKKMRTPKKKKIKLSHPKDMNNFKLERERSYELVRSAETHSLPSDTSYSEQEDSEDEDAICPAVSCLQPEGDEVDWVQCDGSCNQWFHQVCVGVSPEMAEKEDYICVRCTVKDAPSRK
Summary of the method: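 Here, H3K4me3 peptide (12.5 µM in substrate mix) is demethylated by KDM5BΔAP, 200 nM final, after 10 min compound exposure. Formaldehyde product is coupled through FDH (0.25 U/mL in mix) to NADH fluorescence; 30-min ΔRFU feeds dose-response curves.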
Also: nearly all actives have a fitted effect of over 70% in size.
For activity change, negative = inhibition in this document: 0% is about no effect.
Potency is read from the fitted curve at half-maximal effect; tags tell the direction and shape of the fitted curve.

SMILES	Potency	activity change, negative = inhibition
Cc1coc2cc3oc(=O)c(CC(=O)NCc4ccc(F)cc4)c(C)c3cc12	inconclusive: 17.8 µM [inhibitor, partial curve, poor fit]	
CC(C)c1nccn1CCCNC(=O)c1ccc(N2CCCCCC2)nc1	inconclusive: 39.8 µM [inhibitor, single point]	
O=C1CC(c2ccccc2)NCCCCCN1 (configuration not stated)		inactive: 1.78%
CCn1cc(CN(C)C(=O)c2ccc(N3CC4CC(C3)[C@H]3CCCC(=O)N3C4)nc2)c(C)n1 (some centres not stated)	inconclusive: 28.2 µM [inhibitor, single point]	
Cc1ccc(/C=N/Nc2ccc3ccccc3n2)s1	inconclusive: 31.6 µM [inhibitor, partial curve, poor fit]	
CCN(CC)c1ccc(C(=O)NCc2nnc3c(-c4nc(C(C)C)no4)cccn23)cc1		inactive: -9.32%
COc1cccc(-c2cc(-c3cccc(OC)c3)[nH]n2)c1		inactive: -24.6%
Cc1oc(-c2nc(C#N)c(NCC3CCCO3)o2)cc1S(=O)(=O)N1CCCCCC1 (configuration not stated)		inactive: 355%
Cc1ccc(OCc2nc(C#N)c(N(C)Cc3ccccc3)o2)cc1		inactive: -8.07%
COc1ccc(C(=O)Nc2ccc(-c3cc4ccccc4oc3=O)c(C)c2)cc1Br	inconclusive: 4.47 µM [inhibitor, full curve, poor fit]	
O=C(c1c[nH]c2cccnc12)N1CCOCC1	inconclusive: 112 µM [inhibitor, partial curve]	
NC(=O)C1CCN(C(=O)COC(=O)c2cc3ccccc3[nH]2)CC1	inconclusive: 39.8 µM [inhibitor, single point]	
Cc1ccc2nc(-c3ccc(C)c(NC(=O)c4ccc([N+](=O)[O-])cc4)c3)oc2c1		inactive: 6%
COCC(=O)NC[C@H]1CCN(Cc2ccccc2)C[C@H]1N(C)C		inactive: -33.7%
O=C(Nc1ccc(Cl)cc1)N1CCC(CN2CCCC2)CC1	inconclusive: 31.6 µM [inhibitor, single point]	
COc1ccnc(-c2nnc3ccc(N4CCc5ccccc5CC4)nn23)c1	active: 31.6 µM	
CCc1ccc(-n2c(=O)c3ccc(C(=O)NCCc4ccccc4)cc3n(CC(N)=O)c2=O)cc1	inconclusive: 15.8 µM [inhibitor, partial curve, poor fit]	
Cc1cc(C)n(C)c(=O)c1C(=O)N1CCC2(CC1)CNC(C(=O)O)C2 (configuration not stated)	inconclusive: 3.16 µM [inhibitor, full curve]	
Cc1ccc(OCC(O)Cn2c(C)cc(=O)n3ncnc23)cc1 (configuration not stated)		inactive: -7.31%
CCS(=O)(=O)N1CCc2cc(C(=O)Nc3ccc(C)c(Cl)c3)ccc21	inconclusive: 17.8 µM [inhibitor, partial curve, poor fit]	
O=C(CCc1ccccc1)N1CCCCCC1c1nc(-c2ccccc2)no1 (configuration not stated)	inconclusive: 39.8 µM [inhibitor, single point]	
COc1ccc(-c2cc(N3CCCC(NC(=O)c4cc(OC)cc(OC)c4)C3)n[nH]2)cc1 (configuration not stated)		inactive: -16.1%
COCCNc1oc(-c2ccccc2)nc1S(=O)(=O)c1ccc2c(c1)OCCO2	inconclusive: 39.8 µM [inhibitor, single point]	

SMILES	Potency	activity change, negative = inhibition
C=C(C)CN(CC)C(=O)/C=C/c1csc(C)n1		inactive: 30.9%
Cn1c(=O)c2c(nc(NCc3ccc4c(c3)OCO4)n2C)n(C)c1=O		inactive: -18.2%
Cn1nc(C(=O)N2CCN(c3cccc(Cl)c3)CC2)c2c1-c1ccccc1S(=O)(=O)C2	inconclusive: 28.2 µM [inhibitor, single point]	
CCc1cc2c(cc3c(=O)n(CC(=O)N4CCC(C)CC4)nc(CC)n32)s1	inconclusive: 2 µM [inhibitor, full curve, poor fit]	
CC(C)CCn1c2ccccc2c2cc(CC(N)=O)ccc21		inactive: -6.67%
CCCOc1ccc(C2C3=C(CC(C)(C)CC3=O)Nc3cc4c(cc32)OCO4)cc1 (configuration not stated)	inconclusive: 39.8 µM [inhibitor, partial curve, poor fit]	
O=C(c1ccc(-c2ccc(N3CCSCC3)nc2)cc1)N1CCOCC1	active: 22.4 µM	
CSc1cccc(NC(=O)Cn2ccn3nc(-c4ccccc4)c(CO)c3c2=O)c1	inconclusive: 25.1 µM [inhibitor, single point]	
Cc1ccc(S(=O)(=O)N2CCN(C(=O)CNC(=O)c3ccc4c(c3)OCO4)CC2)cc1		inactive: 55.4%
COc1ccc(N2CC(c3noc(-c4cc(C)cc(C)c4)n3)CC2=O)cc1 (configuration not stated)		inactive: -28.7%
COc1ccc(-c2noc([C@@H]3Cc4nc[nH]c4CN3C(=O)CSCC(=O)O)n2)cc1		inactive: -11.4% [at 86.2 µM]
Nc1c(C(=O)Nc2ccc(Cl)c(C(F)(F)F)c2)sc2nc(-c3ccncc3)ccc12	inconclusive: 1.58 µM [inhibitor, full curve, poor fit]	
Cc1ccc(C(=O)N2CCC3(CC2)CN(C2CCC2)CC3CO)s1 (configuration not stated)	inconclusive: 14.1 µM [inhibitor, partial curve]	
CN1CC[C@H](c2nnc(-c3ccccc3)o2)C1	inconclusive: 35.5 µM [inhibitor, partial curve, poor fit]	
CCOC(=O)C1CCN(C(=O)c2ccc3c(c2)sc2nc(-c4ccccc4)cn23)CC1	inconclusive: 35.5 µM [inhibitor, partial curve, poor fit]	
c1ccc(CCc2nc3nccc(-c4ccsc4)n3n2)cc1	inconclusive: 14.1 µM [inhibitor, partial curve]	
O=C(Nc1ccc2[nH]ncc2c1)c1cnc2c(cnn2C2CCCC2)c1	inconclusive: 39.8 µM [inhibitor, single point]	
CN(C)c1ccc(C(=O)N2CCC3(CC2)NC(=O)N(c2ccccc2)N3)cc1		inactive: -8.73%
COCc1ccccc1-c1nccc2c(=O)cc(-c3cnn(C)c3)oc12	active: 35.5 µM	
CC(NC(=O)CCOc1ccccc1)c1ccccc1 (configuration not stated)		inactive: 12.5%
CC(=O)Nc1cccc(C(=O)NCc2nnc3ccc(-c4ccc(Cl)cc4)nn23)c1	inconclusive: 25.1 µM [inhibitor, partial curve, poor fit]	
COc1ccc(/C(=N/OC(=O)c2cccc(F)c2)c2nccc3cc(OC)c(OC)cc23)cc1OC	inconclusive: 39.8 µM [inhibitor, single point]	
C[S+](=O)([O-])CCn1ncc2cc(OCC3CCN(C(=O)OC4CCCC4)CC3)ccc21		inactive: -9.04%

SMILES	Potency	activity change, negative = inhibition
COCc1cc(C[C@@H]2CC[C@H](O)[C@@H](CNCc3ccccc3OC)O2)no1		inactive: 301% [at 86.2 µM]
O=C(c1ccc(C(F)(F)F)cc1)N1CCn2c(nn(-c3ccc(C(F)(F)F)cc3)c2=O)C1	inconclusive: 17.8 µM [inhibitor, full curve, poor fit]	
CC(=O)c1ccccc1NC(=O)CSC1=Nc2ccccc2C2CC=NN12 (configuration not stated)	inconclusive: 20 µM [inhibitor, partial curve, poor fit]	
Cc1cn2nc(C(=O)Nc3ccccc3)cc2c(N(C)Cc2ccccc2)n1	active: 28.2 µM	
CN(C)CCN(C)C(=O)c1ccc(-c2ncc3cnc(-c4cccc(F)c4)cn23)cc1	active: 39.8 µM	
c1ccc(Nc2nc(NCc3ccco3)c3ccccc3n2)cc1	inconclusive: 28.2 µM [inhibitor, partial curve, poor fit]	
Brc1ccc(-c2noc(-c3ccc4c(c3)OCO4)n2)o1		inactive: 6.76%
CC(=O)Oc1ccc2c(C)c(CC(=O)NC3CCCCCC3)c(=O)oc2c1OC(C)=O	inconclusive: 35.5 µM [inhibitor, partial curve, poor fit]	
O=C(c1ccccc1C(F)(F)F)N1CCc2nc3cc[nH]n3c(=O)c2C1	active: 31.6 µM	
COc1cccc(C(=O)N(C)CCCNC(=O)c2nc3ccccc3c(=O)[nH]2)c1		inactive: -1.19%
COc1ccc(CCn2cc3c(c2-c2ccccc2Br)c(=O)n(C)c(=O)n3C)cc1OC	inconclusive: 11.2 µM [inhibitor, partial curve, poor fit]	
CC(C)CN1CCN(C(=O)CCC[C@@H]2[C@H]3CCCN4CCC[C@@H](CN2C(=O)c2ccccc2)[C@@H]34)CC1	inconclusive: 15.8 µM [inhibitor, partial curve]	
CCc1cc(=O)oc2c(C)c(OC(C)C(=O)NCc3ccccn3)ccc12 (configuration not stated)	inconclusive: 25.1 µM [inhibitor, single point]	
CN(Cc1cccs1)C(=O)Cc1c[nH]c2ccccc12		inactive: 2.68%
CCc1ccc(S(=O)(=O)c2nnn3c2nc(NCCc2ccccc2)c2sccc23)cc1	inconclusive: 31.6 µM [inhibitor, partial curve, poor fit]	
O=c1c2c(nc3cc[nH]n13)CCN(S(=O)(=O)c1ccccc1Cl)C2	inconclusive: 28.2 µM [inhibitor, partial curve, poor fit]	
O=[S+]([O-])(NCC1CN(Cc2ccc3c(c2)CCO3)CC12CN(c1ccccc1)C2)c1ccccc1 (configuration not stated)	inconclusive: 39.8 µM [inhibitor, single point]	
Cc1nn2c(c1-c1ccccc1C(C)C)N(Cc1ccc3c(c1)CCO3)CCC2	inconclusive: 28.2 µM [inhibitor, partial curve, poor fit]	
CCC(=O)N1CCN(c2nc3c(s2)CC(C(=O)N2CCN(CC)CC2)CC3)CC1 (configuration not stated)	inconclusive: 28.2 µM [inhibitor, partial curve]	
C/C=C/C=C/C(=O)Nc1ccccc1-c1cccs1	inconclusive: 22.4 µM [inhibitor, partial curve, poor fit]	
COc1cccc(CNC(=O)Cn2cc3c(n2)-c2c(oc(C(=O)N4CCCC4)c2C)CC3)c1OC	inconclusive: 3.55 µM [inhibitor, full curve, poor fit]	
